# Source: the supplement of paper PMC6135742
# Where a name gives a salt, the structure may show the parent alone. ± gives the standard deviation of the averaged measurements. The full ranking holds about 2,600 compounds; the median of “MBP+ mature oligodendrocyte number relative to DMSO vehicle control” is about -0.34, and the highest 2% start at about 13. The list shows a part of the results.
# Tested on: jimpy (Plp1 jimpy) mouse iPSC-derived oligodendrocyte progenitor cells
# Test: MBP+ mature oligodendrocyte number relative to DMSO vehicle control (SDs above negative control mean); higher = more surviving jimpy oligodendrocytes (rescue)
# Settings: 10 µM; 3 days
# 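Also: 10 µM single dose with 3-day oligodendrocyte differentiation.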
row,Structure (SMILES),MBP+ mature oligodendrocyte number
1,CC(C)(Oc1ccc(C2CC2(Cl)Cl)cc1)C(=O)O (stereo not drawn) [Ciprofibrate],1.18 ± 0.72
2,Cc1[nH]c(/C=C2\C(=O)Nc3ccc(S(=O)(=O)Cc4c(Cl)cccc4Cl)cc32)c(C)c1C(=O)N1CCC[C@@H]1CN1CCCC1,< -6.7
3,COc1ccc(CNCc2cccc3ccccc23)cc1,-1.56
4,NC(=O)[C@@H](CCC(F)(F)F)N(Cc1ccc(-c2ncon2)cc1F)S(=O)(=O)c1ccc(Cl)cc1,4.21
5,N#CC(=C(/N)Sc1ccccc1N)/C(C#N)=C(\N)Sc1ccccc1N,-2.51
6,N#CC(=C(/N)Sc1ccccc1N)/C(C#N)=C(\N)Sc1ccccc1N [U0126 monoethanolate],0.273
7,CC(C)c1onc(-c2c(Cl)cccc2Cl)c1COc1ccc(/C=C/c2cccc(C(=O)O)c2)c(Cl)c1,4.15
8,Nc1nc(Nc2ccc(S(N)(=O)=O)cc2)nn1C(=O)c1c(F)cccc1F,< -6.7
9,C=CCN1CCCC1CNC(=O)c1cc2nn[nH]c2cc1OC (stereo not drawn) [Alizapride HCl],7.67
10,Cc1nc2c(OCc3ccccc3)cccn2c1CC#N,-0.962
11,CCOC(=O)C1=C(C)NC(C)=C(C(=O)OC)C1c1cccc([N+](=O)[O-])c1 (stereo not drawn) [Nitrendipine],4.55 ± 2.1
12,N[C@H](C(=O)O)[C@H](Cc1ccccc1)C(=O)O [L-Beta-threo-benzyl-aspartate],1.25
13,"CN(C)c1nc(N)c(C(=O)NC(=N)N)nc1Cl [5-(N,N-Dimethyl)amiloride hydrochloride]",-0.747
14,O=C(c1ccc(OCCN2CCCCC2)cc1)c1c(-c2ccc(O)cc2)sc2cc(O)ccc12 [Raloxifene HCl],10.3
15,O=C(c1ccc(OCCN2CCCCC2)cc1)c1c(-c2ccc(O)cc2)sc2cc(O)ccc12 [Raloxifene hydrochloride],5.72
16,CNC(=O)c1ccc(N2C(=S)N(c3cnc(C#N)c(C(F)(F)F)c3)C(=O)C23CCC3)cc1F,5.74
17,CNC(=O)c1ccccc1Sc1ccc2c(/C=C/c3ccccn3)n[nH]c2c1 [Axitinib],-5.04
18,CC(C)(NS(=O)(=O)c1ccc(Oc2ccc(F)cc2)cc1)C(=O)NO,-0.0098
19,CC(CN1c2ccccc2Sc2ccccc21)N(C)C (stereo not drawn) [Promethazine hydrochloride],-3.93
20,CNC(=O)CN1CCC(Oc2cc3c(Nc4cccc(Cl)c4F)ncnc3cc2OC)CC1 [AZD8931 (Sapitinib)],-4.14
21,CCN1CCCC1CNC(=O)c1cc(S(=O)(=O)CC)c(N)cc1OC (stereo not drawn) [Amisulpride],0.0203 ± 0.13
22,Nc1nc(N)nc(-c2cc(Cl)ccc2Cl)n1 [Irsogladine],-1.46
23,CCCS(=O)(=O)Nc1ccc(F)c(C(=O)c2c[nH]c3ncc(Cl)cc23)c1F,0.545
24,O=C(Nc1cccc(Cl)c1)Nc1ncc(CCNc2ncnc3ccsc23)s1 [SNS-314 Mesylate],3.08

row,Structure (SMILES),MBP+ mature oligodendrocyte number
1,Nc1ncnc2c1c(-c1cccc(OCc3ccccc3)c1)cn2C1CC(CN2CCCC2)C1 (stereo not drawn),< -6.7
2,CCc1c(C(=O)NCCc2ccc(N3CCCCC3)cc2)[nH]c2ccc(Cl)cc12,8.45
3,Nc1cccc(-c2cc3c(Oc4cccc(O)c4)ncnc3[nH]2)c1,-3.71
4,CC(C)[C@H]1CC[C@H](C(=O)N[C@H](Cc2ccccc2)C(=O)O)CC1 [Nateglinide],-0.78
5,COc1c(O)cc2c(c1O)[C@@H]1O[C@H](CO)[C@@H](O)[C@H](O)[C@H]1OC2=O [Bergenin],-0.444
6,COc1ccc(-n2nc(C(N)=O)c3c2C(=O)N(c2ccc(N4CCCCC4=O)cc2)CC3)cc1 [Apixaban],-0.467
7,COc1ccc(C(C)=O)c(O)c1 [Paeonol],-1.62
8,CC(C)c1nc(CN(C)C(=O)N[C@H](C(=O)N[C@@H](Cc2ccccc2)C[C@H](O)[C@H](Cc2ccccc2)NC(=O)OCc2cncs2)C(C)C)cs1 [Ritonavir],-3.99
9,CCCOC(=O)c1c(-c2ccccc2)nc(CC)c(C(=O)SCC)c1CCC,-1.93
10,COc1ccccc1OCCNCC(O)COc1cccc2[nH]c3ccccc3c12 (stereo not drawn) [Carvedilol],-4.38 ± 0.7
11,CC1CCc2cc(F)cc3c(=O)c(C(=O)O)cn1c23 (stereo not drawn) [Flumequine],1.53
12,COc1cc(N2CCC(N3CCN(C)CC3)CC2)ccc1Nc1ncc(Cl)c(Nc2ccccc2S(=O)(=O)C(C)C)n1,< -6.7
13,C[C@@H](O)[C@H]1C(=O)N2C(C(=O)OCOC(=O)C(C)(C)C)=C(SC3CN(C4=NCCS4)C3)[C@H](C)[C@H]12 [Tebipenem Pivoxil],-4.36
14,CCCCOc1ccc(OCCCN2CCOCC2)cc1 [Pramoxine HCl],14.3
15,COC(=O)Nc1nc2cc(C(=O)c3ccc(F)cc3)ccc2[nH]1 [Flubendazole],-4.88
16,CC(=O)O[C@H]1Cc2ccccc2N(C(N)=O)c2ccccc21,-0.711
17,O=C(O[C@@H]1C[C@@H]2C[C@H]3C[C@H](C1)N2CC3=O)c1c[nH]c2ccccc12 [Dolasetron mesylate hydrate],-0.0327
18,CC(C)(C)NC(=O)[C@@H]1CN(Cc2cccnc2)CCN1C[C@@H](O)C[C@@H](Cc1ccccc1)C(=O)N[C@H]1c2ccccc2C[C@H]1O [Indinavir sulfate salt hydrate],-1.26
19,COc1ccc2cc1Oc1ccc(cc1)C[C@H]1c3c(cc4c(c3Oc3cc5c(cc3OC)CCN(C)[C@@H]5C2)OCO4)CCN1C [Cepharanthine],< -6.35
20,NC1=N[C@@]2(c3cc(NC(=O)c4ccc(F)cn4)ccc3F)COC[C@H]2CS1,0.563
21,COc1ccc(COc2cc3oc(=O)c4cc(C(C)O)ccc4c3cc2OC)cc1 (stereo not drawn) [Palomid 529 (P529)],0.843
22,CCCCCCCC/C=C\CCCCCCCC(=O)O [Oleic Acid],-0.559
23,CC(C)(C)NCC(O)c1ccc(O)c(CO)c1 (stereo not drawn) [Albuterol hemisulfate],-0.426
24,"CO[C@H]1C[C@@H]2CC[C@@H](C)[C@@](O)(O2)C(=O)C(=O)N2CCCC[C@H]2C(=O)O[C@H]([C@H](C)C[C@@H]2CC[C@@H](OP(C)(C)=O)[C@H](OC)C2)CC(=O)[C@H](C)/C=C(\C)[C@@H](O)[C@@H](OC)C(=O)[C@H](C)C[C@H](C)/C=C/C=C/C=C/1C [Ridaforolimus (Deforolimus, MK-8669)]",-3.82
